# The campaign covered roughly 310,000 compounds. About 14,000 (4.5%) showed an effect of 50% or more. The effect is printed as a negative number. This is one part of the list.
# Target: human ether-à-go-go-related gene (hERG) potassium channel (human, UniProt Q12809)
# Assay: primary screen, population patch clamp on CHO cells stably expressing hERG
# 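Also: peak tail current of the secondary pulse compared with the same well before compound.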
# Sequence of human ether-à-go-go-related gene (hERG) potassium channel (Q12809 whole entry, looked up): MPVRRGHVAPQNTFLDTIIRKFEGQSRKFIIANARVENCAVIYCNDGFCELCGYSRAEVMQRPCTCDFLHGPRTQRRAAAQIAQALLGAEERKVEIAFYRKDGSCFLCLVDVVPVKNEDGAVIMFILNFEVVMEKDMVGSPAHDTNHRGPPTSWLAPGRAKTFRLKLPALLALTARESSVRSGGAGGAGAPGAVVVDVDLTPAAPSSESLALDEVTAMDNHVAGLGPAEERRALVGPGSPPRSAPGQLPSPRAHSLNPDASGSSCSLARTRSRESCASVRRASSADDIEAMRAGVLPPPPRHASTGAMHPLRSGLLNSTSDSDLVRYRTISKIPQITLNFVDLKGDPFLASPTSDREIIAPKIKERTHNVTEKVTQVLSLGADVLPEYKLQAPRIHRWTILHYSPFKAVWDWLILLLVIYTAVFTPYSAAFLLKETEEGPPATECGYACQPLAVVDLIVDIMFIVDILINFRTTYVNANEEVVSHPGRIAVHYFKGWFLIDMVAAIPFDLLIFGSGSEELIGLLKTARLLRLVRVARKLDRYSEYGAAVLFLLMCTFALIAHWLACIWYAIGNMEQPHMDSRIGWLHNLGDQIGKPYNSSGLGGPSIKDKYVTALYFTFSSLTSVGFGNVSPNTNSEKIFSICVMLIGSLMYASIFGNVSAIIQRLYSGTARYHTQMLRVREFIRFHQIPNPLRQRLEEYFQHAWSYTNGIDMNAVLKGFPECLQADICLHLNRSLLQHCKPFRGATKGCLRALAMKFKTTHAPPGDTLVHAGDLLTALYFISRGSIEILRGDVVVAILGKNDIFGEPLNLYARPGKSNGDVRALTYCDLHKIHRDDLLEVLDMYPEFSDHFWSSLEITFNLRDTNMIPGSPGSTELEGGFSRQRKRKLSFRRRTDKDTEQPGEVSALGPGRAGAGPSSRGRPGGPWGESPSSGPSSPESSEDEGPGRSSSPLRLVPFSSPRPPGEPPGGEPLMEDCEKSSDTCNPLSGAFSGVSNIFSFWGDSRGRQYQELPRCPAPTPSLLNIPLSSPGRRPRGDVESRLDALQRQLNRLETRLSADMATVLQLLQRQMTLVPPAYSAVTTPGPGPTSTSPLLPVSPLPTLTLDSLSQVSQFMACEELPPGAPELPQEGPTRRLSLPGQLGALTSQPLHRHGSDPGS
row,SMILES,"hERG current change (%, negative = inhibition) at 10uM [%]"
1,CCOC(=O)c1ccc(NC(=O)CSc2nnc(-c3cccs3)n2C)cc1,-8.2
2,O=C(CNCC1CCCO1)N1CCCc2ccccc21.O=C(O)C(=O)O (stereo not shown),1.46
3,Oc1cccc(/C=N/Nc2cc(N3CCCC3)nc(N3CCCC3)n2)c1,4.43
4,O=C(COC(=O)c1ccccc1OCC(=O)Nc1ccc(Br)cc1)Nc1ccccc1,7.6
5,COc1ccc(C(=O)CC(=O)O)c2c1C=CC(C)(C)O2,5.95
6,Clc1cccc(Cl)c1Cl,13.2
7,O=c1ccc(-c2nc3cc(Cl)ccc3n2Cc2ccccc2)c[nH]1,-73.9
8,COc1c(C(=O)N2CCCC2)ccc2ccccc12,1.52
9,CN(C)CCCNCC(=O)Nc1ccccc1N1CCOCC1.O=C(O)C(=O)O,14.2
10,NC(=O)N/N=C/c1ccc(-c2cccc(C(F)(F)F)c2)o1,-4.87
11,Cc1ccc(CSC2=NCCN2C(=O)c2ccc([N+](=O)[O-])cc2)cc1,-42.9
12,COc1cccc(CNC(=O)c2cccc(S(=O)(=O)N3CCN(c4ccc(F)cc4)CC3)c2)c1,-26
13,Cc1nn(-c2ccccc2)c(C)c1/C=N/NC(=O)c1cc(-c2ccc(Cl)s2)[nH]n1,3.7
14,CC(C)C(C(=O)Nc1ccc(S(=O)(=O)N2CCOCC2)cc1)N1C(=O)c2ccccc2C1=O (stereo not shown),-16.2
15,CCOc1cc2[nH]c(=O)n(Cc3ccc(C(=O)NCCCN4CCC(C)CC4)cc3)c(=O)c2cc1OCC,-15.5
16,N#Cc1ccc(C(=O)Nn2cnnc2)cc1,11.5
17,CC(=O)Nc1ccc(S(=O)(=O)N2CCCN(S(=O)(=O)c3ccc(C)cc3)CC2)cc1,-72.8
18,NC(=O)CCC1NC(=S)N(Cc2ccccc2)C1=O (stereo not shown),7.85
19,Cc1ccc(NC(=O)CNc2ccc(OC(C)C)cc2)c(C)c1,2.21
20,Cl.NCC(O)c1ccc(O)cc1 (stereo not shown),1.93
21,Cc1cccc(-n2c(C)nc3cc(C(=O)N4CCOCC4)ccc32)c1,13.1
22,CCOC(=O)c1c(NC(=O)Cn2c(=O)oc3ccccc32)oc(C)c1C(C)=O,6.29
23,CN(C)CCc1nn[nH]n1,-0.456
24,O=S(=O)(c1ccc(Oc2ccc(F)c(Cl)c2)nc1)N1CCOCC1,-3.58
25,CC(=O)Nc1cccc(Oc2ccc(-c3noc(C)n3)cc2)c1,6.94

# — PMC4336329 (PLoS ONE, 2015)
